The other results are listed elsewhere or left out.
Each compound was assayed on T1, C. trachomatis L2/434/Bu expressing GFP (CTL2-GFP). Conditions: total inclusion area; 28.5 h, 10 µM; inhibitor.
T1 construct: L2/434/Bu GFP intracellular growth in HeLa cells
Design: species or system HeLa; C. trachomatis total inclusion area by high-content imaging, normalised to DMSO
Outline: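 Bulk GFP and resorufin signals were read first. Wells were then fixed, stained with Hoechst and imaged to detect GFP inclusions and host nuclei. MICs followed the previously described calculation.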
In the case of `N#CCC(=O)N1CCN(Cc2ccc3c(c2)OCO3)CC1` [CBK074447], the “% of control remaining” value is reported as 91.9743. `Cc1ccc(S(=O)(=O)NC(C)C(=O)NCc2ccco2)cc1` (centres unmarked) [CBK266514] was tested, and the “% of control remaining” value was 81.4836. In the case of `c1cc(CNCCN2CCOCC2)cs1` [CBK001894], the “% of control remaining” value is reported as 108.368. `O=C(c1cc(-c2ccc(Cl)cc2)[nH]n1)N1CCN(c2ncccn2)CC1` [CBK116551] was tested, and the “% of control remaining” value was 109.877. With `COC(=O)c1c(C)[nH]c(C(=O)N2CCCC2c2cccnc2)c1C` (centres unmarked) [CBK296639] the “% of control remaining” value was 68.5593. For `CCN(CC)CCN(C(=O)NCCc1c[nH]c2ccc(OC)cc12)C(C)c1ccc(OC)c(OC)c1` (centres unmarked) [CBK158948], the “% of control remaining” value was 90.2475. In the case of `O=C(CSc1nc2[nH]ncc2c(=O)n1-c1ccccc1)Nc1ccc(F)c(Cl)c1` [CBK266453], the “% of control remaining” value is reported as 60.7151. For `O=C(Nc1cccc(F)c1)c1cc2ccccc2cc1O` [CBK016863], the “% of control remaining” value was 86.3869. `Cc1nc(C)c(C(=O)N2CCC(c3cc4c(C)cccc4cn3)CC2)o1` [CBK285186] was tested, and the “% of control remaining” value was 63.6215. `COc1ccc(COc2nc3ccccc3nc2NC(C)C)cc1OC` [CBK116610] was tested, and the “% of control remaining” value was 105.352. With `Cc1ccc(Nc2ncc(C(=O)NCc3ccccn3)c3ccccc23)cc1Cl` [CBK291113] the “% of control remaining” value was 122.488. With `Cc1ccc(Oc2c([N+](=O)[O-])c(C)nn2C)c(Br)c1` [CBK000283] the “% of control remaining” value was 90.5921. `OCCOc1nc2ccccc2s1` [CBK001812] was tested, and the “% of control remaining” value was 93.0958. `O=C(C1CCCN(c2nc3c(-c4ccccc4)csc3c(=O)[nH]2)C1)N1CCOCC1` (centres unmarked) [CBK215582] was tested, and the “% of control remaining” value was 110.558. For `CCc1nccn1CCC(=O)Nc1ccc2c(c1)nc(CC)n2CC` [CBK281629], the “% of control remaining” value was 117.924. For `CC(C)NS(=O)(=O)c1ccc(NS(=O)(=O)c2cccc(C(=O)O)c2)cc1` [CBK296950], the “% of control remaining” value was 80.0003. For `COc1ccccc1-c1ccc(NC(=O)CCc2ccc3c(c2)n(C)c(=O)n3C)cc1` [CBK286527], the “% of control remaining” value was 96.4329. With `CC(C(=O)N1c2ccccc2Sc2ccccc21)N1C(=O)c2ccccc2C1=O` (centres unmarked) [CBK018045] the “% of control remaining” value was 75.9462. `O=[N+]([O-])c1ccc(NCCNS(=O)(=O)c2ccccc2)cc1` [CBK261948] was tested, and the “% of control remaining” value was 98.7052. In the case of `O=[N+]([O-])c1ccc(Sc2nnc(-c3cccs3)n2CC2CCCO2)cn1` (centres unmarked) [CBK297483], the “% of control remaining” value is reported as 55.4173. For `O=C(Nc1cccnc1)N1CCc2ccccc2C1` [CBK155312], the “% of control remaining” value was 103.684. With `Cc1ccccc1-n1nc(-c2ccc(NC(=O)c3ccccc3)cc2)cc1NC(=O)c1ccccc1` [CBK261264] the “% of control remaining” value was 94.5466. For `Cc1nc(C)c(-c2csc(Nc3ncccn3)n2)s1` [CBK263297B], the “% of control remaining” value was 83.2432. For `CC(=O)Nc1nc(CN2CCOC(c3ccc(F)cc3)C2)cs1` (centres unmarked) [CBK305591], the “% of control remaining” value was 67.4109. In the case of `O=C(COc1cccc([N+](=O)[O-])c1)Nc1cc(C(=O)O)cc(C(=O)O)c1` [CBK263604], the “% of control remaining” value is reported as 100.607. `Oc1ccc(CN2CCN(c3ccc(F)cc3)CC2)c2cccnc12` [CBK267985] was tested, and the “% of control remaining” value was 105.158. In the case of `Cc1nnc(SCCn2c(N3CCCCC3)nc3c2c(=O)n(C)c(=O)n3C)s1` [CBK269288], the “% of control remaining” value is reported as 118.414. `CCOC(=O)c1cccc(-c2ccc(OC(F)(F)F)cc2)n1` [CBK149251] was tested, and the “% of control remaining” value was 107.28. For `O=C(O)CCN1CCCC2(CCN(C(=O)Cc3c[nH]c4ccccc34)C2)C1` (centres unmarked) [CBK137138], the “% of control remaining” value was 98.5799. In the case of `CN(C)c1cccc(-c2ccc(Nc3cccc(NC(=O)c4ccncc4)c3)nc2)c1` [CBK037721], the “% of control remaining” value is reported as 28.805. `Cc1cc(CNC(=O)N2CCCC(CO)C2)no1` (centres unmarked) [CBK156028] was tested, and the “% of control remaining” value was 84.9197. In the case of `Cc1nn(C)cc1-c1cncn1CCCn1ccnc1C(C)C` [CBK281972], the “% of control remaining” value is reported as 99.8432. `CC(C)C(=O)NCCn1nc(-c2ccco2)ccc1=O` [CBK283863] was tested, and the “% of control remaining” value was 103.75. In the case of `CCCn1nc(C)cc1NC(=O)c1ncoc1-c1ccc(F)cc1` [CBK282361], the “% of control remaining” value is reported as 100.029. With `CN(C)C1(c2nnnn2CCOC(=O)Nc2ccc(Cl)cc2)CCCCC1` [CBK266093] the “% of control remaining” value was 88.1356. In the case of `CCCCCC(=O)Nc1ccc(S(=O)(=O)Nc2nnc(CC)s2)cc1` [CBK045478], the “% of control remaining” value is reported as 18.0658. In the case of `COc1cc(NC(=O)CC2SC(NC3CCCCC3)=NC2=O)c(OC)cc1Cl` (centres unmarked) [CBK059497], the “% of control remaining” value is reported as 82.9924. For `CCNc1nc(-c2ccsc2)cn2ccnc12` [CBK037375], the “% of control remaining” value was 91.6919. In the case of `CN(C)C(=O)c1cc2cc(NC(=O)CC3COCCN3)ccc2s1` (centres unmarked) [CBK306710], the “% of control remaining” value is reported as 59.0579. In the case of `Cc1ccccc1-n1ccn(S(=O)(=O)C(C)C)c1=O` [CBK106566], the “% of control remaining” value is reported as 103.889. For `Cc1ccc(-c2nc(Nc3ccc(Br)cc3)sc2CC(=O)O)cc1` [CBK264251], the “% of control remaining” value was 103.132. For `O=C(c1cc2c(F)cccc2[nH]1)N1CCC(Oc2cccnc2)CC1` [CBK281468], the “% of control remaining” value was 84.7996. With `O=C(c1ccc2ncccc2c1)N1CCN(c2ncccn2)CC1` [CBK144503] the “% of control remaining” value was 106.703. In the case of `O=C(c1ccc([N+](=O)[O-])cc1)n1nc(-c2cccnc2)nc1NCc1ccc(F)cc1` [CBK268962], the “% of control remaining” value is reported as 109.729. In the case of `COc1ccccc1NC(=S)NCCc1ccccn1` [CBK265358], the “% of control remaining” value is reported as 96.823. For `COC1CCCC(C(=O)N2CCC(c3onc4c3CCC4)CC2)C1` (centres unmarked) [CBK285519], the “% of control remaining” value was 94.4278. `O=C(CN1C(=O)c2ccc([N+](=O)[O-])cc2C1=O)Nc1cccc2c1C(=O)N(c1ccccc1)C2=O` [CBK265576] was tested, and the “% of control remaining” value was 88.2091. In the case of `O=S(=O)(Nc1cccc2cc[nH]c12)c1cc(Cl)ccc1Cl` [CBK153581], the “% of control remaining” value is reported as 94.6056. `COc1nccnc1N1CCN(CCc2c[nH]c3ccccc23)CC1` [CBK084231] was tested, and the “% of control remaining” value was 79.6088. For `COc1ccc(S(=O)(=O)Nc2ccc(C(=O)O)c(O)c2)cc1[N+](=O)[O-]` [CBK299771], the “% of control remaining” value was 102.571. `COc1cc(/C=N/c2ccc(O)c(-c3nc4ccccc4s3)c2)ccc1OC(=O)c1ccc(Cl)cc1Cl` [CBK261243] was tested, and the “% of control remaining” value was 107.227. In the case of `CC(C)(C)NC(=O)C1C2CCC3(CC(=O)c4cc(Cl)ccc4O3)C21` (centres unmarked) [CBK284963], the “% of control remaining” value is reported as 83.6312. In the case of `Cc1ccccc1-c1ccc2n(c1=O)C[C@H]1C[C@@H]2CN(C(=O)CCC(=O)O)C1` [CBK289181], the “% of control remaining” value is reported as 97.3991. With `O=c1[nH]c2ncc(-c3ccsc3)nc2n1Cc1ccccc1` [CBK064227] the “% of control remaining” value was 120.377. `Cc1ccc(C(=O)CC(C(=O)O)c2c(C)[nH]c3ccccc23)cc1` (centres unmarked) [CBK269337] was tested, and the “% of control remaining” value was 103.248. `CC(=O)N1CC[C@H]2NC(=O)CNC(=O)C3(CCCC[C@H]2C1)CCN(Cc1ccc(Cl)cc1)CC3` [CBK292119] was tested, and the “% of control remaining” value was 112.522. In the case of `CCC(=O)N(C)C1CCN(c2ncnc3ccccc23)CC1` [CBK304829], the “% of control remaining” value is reported as 96.4982. `O=C(NCCO)NC(=S)c1ccccc1` [CBK267213] was tested, and the “% of control remaining” value was 107.618. With `COCCNC(=O)c1cc2n(n1)C(C(F)(F)F)CC(c1ccccc1)N2` (centres unmarked) [CBK307610] the “% of control remaining” value was 69.5552. With `O=C(CSCc1ccc(Br)cc1)Nc1ccc(S(=O)(=O)N2CCOCC2)cc1` [CBK267845] the “% of control remaining” value was 101.859. With `Cc1nc(CN2CCN(c3ccc4nnnn4n3)CC2)cs1` [CBK306056] the “% of control remaining” value was 70.1644. In the case of `O=C(CSc1ccc2nnc(-c3ccc(F)cc3)n2n1)N1CCCC1` [CBK287519], the “% of control remaining” value is reported as 93.4781. With `O=C1CN(Cc2nc(-c3cccc(C(F)(F)F)c3)no2)CCN1` [CBK306038] the “% of control remaining” value was 25.5265. `COc1ccc(-c2ccc(OC3CCNCC3)cc2)c(OC)c1` [CBK093816T] was tested, and the “% of control remaining” value was 68.588. In the case of `O=C(O)c1cccnc1SCc1cc2c(cc1Cl)OCO2` [CBK287178], the “% of control remaining” value is reported as 95.5681. For `N#Cc1c(NC(=O)CSc2nc(=O)cc(N)n2CCc2ccccc2)sc2c1CCCC2` [CBK293993], the “% of control remaining” value was 107.587. `c1sc(C2CN3CCCC3CO2)nc1C1CCCC1` (centres unmarked) [CBK304814] was tested, and the “% of control remaining” value was 93.8646. With `COc1ccc(C)cc1S(=O)(=O)Nc1cc(NCCCN2CCOCC2)c2occc2c1` [CBK067837C] the “% of control remaining” value was 70.2337. `c1ccc2[nH]c(SCCN3CCOCC3)nc2c1` [CBK262593] was tested, and the “% of control remaining” value was 85.1746. `COCCN(Cc1cnn(C)c1)C(=O)NCc1nc2c(C)cccc2o1` [CBK307642] was tested, and the “% of control remaining” value was 53.6405. In the case of `O=C(O)C1C2C=CC(C2)C1C(=O)NCc1ccncc1` (centres unmarked) [CBK265403], the “% of control remaining” value is reported as 103.735. In the case of `Cc1sc2c(C3CCN(C(=O)C4CC4C)CC3)nc(C)n2c1C` (centres unmarked) [CBK285299], the “% of control remaining” value is reported as 45.4673. For `COc1ccc(Cl)cc1-c1noc(Cn2nc(C)c(Cl)c2C)n1` [CBK269813], the “% of control remaining” value was 88.8495. For `Cc1cc(C)cc(NC(=O)c2ccc(CSc3nnc(N)s3)cc2)c1` [CBK266609], the “% of control remaining” value was 83.1605. For `COC(=O)/C=C/c1cccc(-c2cnc(N)c(-c3ccc(O)cc3)n2)c1` [CBK125689], the “% of control remaining” value was 118.656. For `O=C(c1cncnc1)N1CCC2(CCN(C(=O)c3cc(F)c(F)cc3F)C2)C1` (centres unmarked) [CBK131405], the “% of control remaining” value was 108.593. `OC(CNCc1cccs1)c1ccccc1` (centres unmarked) [CBK057092] was tested, and the “% of control remaining” value was 57.0953. `COc1ccc(C(C)C)cc1-c1cncc(N2CCN(Cc3ccccn3)CC2)n1` [CBK065792] was tested, and the “% of control remaining” value was 87.0061. In the case of `CN(C)c1nc(-c2cc(C(F)(F)F)cc(C(F)(F)F)c2)ccc1C(=O)NCc1ccco1` [CBK106094], the “% of control remaining” value is reported as 80.2063. In the case of `Cc1c(C(=O)C2=C(O)C(=O)N(CCCN(C)C)C2c2ccccn2)cnn1-c1ccccc1` (centres unmarked) [CBK266516], the “% of control remaining” value is reported as 97.7655.

Reference: paper PMC12040169 (PLOS Biology, 2025)
